# Values joined by “and” are separate entries in the source; they are usually repeats but may differ in a detail not shown here. Equal values may be shown once. Hit rate of the full screen: of about 270,000 compounds, about 5,800 (2.1%) were called active. The shares of active, inactive and inconclusive entries below differ from those in the screen. Calls come from the whole dose curve; as a rule, active = well fitted inhibition curve with a large enough effect; inconclusive = small, poorly fitted or top-dose-only effect; inactive = flat fitted curve, though single readings scatter. Where the call is inconclusive, the potency comes from a doubtful curve fit.
# Biological target: Microtubule-associated protein tau (Homo sapiens) (UniProt P10636)
# Assay: qHTS for Inhibitors of Tau Fibril Formation, Thioflavin T Binding; note: nearly all actives have a fitted effect of over 55% in size
# Details: recombinant tau K18 P301L (four-repeat tau fragment), heparin-induced fibrillization, ThT fluorescence; series mostly up to 57.4 µM
# Outline: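 In this qHTS, human K18 P301L tau is incubated with compound and heparin for 6 hr at 37 C, and Thioflavin T fluorescence then reports fibril load.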
# % is set by controls: 0 for no effect and ±100 for the full control effect; potency is the fitted concentration of half-maximal effect; tags give direction and shape of the fitted curve.
# UniProt P10636, sequence (P10636 whole entry, looked up): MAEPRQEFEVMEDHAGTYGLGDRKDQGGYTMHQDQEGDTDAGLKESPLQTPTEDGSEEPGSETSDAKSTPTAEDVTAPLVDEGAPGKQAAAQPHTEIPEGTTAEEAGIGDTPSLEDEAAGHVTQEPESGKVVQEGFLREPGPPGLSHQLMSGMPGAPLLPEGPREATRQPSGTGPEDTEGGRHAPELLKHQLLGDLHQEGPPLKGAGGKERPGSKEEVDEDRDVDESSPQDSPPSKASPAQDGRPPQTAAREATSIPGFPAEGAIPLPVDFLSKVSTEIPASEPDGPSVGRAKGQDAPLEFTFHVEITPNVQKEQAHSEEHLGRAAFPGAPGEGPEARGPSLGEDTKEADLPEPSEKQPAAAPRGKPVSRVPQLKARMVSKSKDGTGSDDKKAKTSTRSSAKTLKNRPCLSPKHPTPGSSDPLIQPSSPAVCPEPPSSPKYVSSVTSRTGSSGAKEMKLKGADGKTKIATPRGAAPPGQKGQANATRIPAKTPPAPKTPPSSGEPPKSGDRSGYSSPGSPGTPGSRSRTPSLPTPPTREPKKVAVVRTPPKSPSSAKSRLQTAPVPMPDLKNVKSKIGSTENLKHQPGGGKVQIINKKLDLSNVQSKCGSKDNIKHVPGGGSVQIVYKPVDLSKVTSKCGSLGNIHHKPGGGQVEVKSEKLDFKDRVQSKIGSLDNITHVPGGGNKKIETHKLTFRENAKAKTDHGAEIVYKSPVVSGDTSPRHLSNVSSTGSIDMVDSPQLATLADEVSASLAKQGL
SMILES,Potency,"activity, negative = inhibition"
C=CCn1c(-c2ccc3[nH]c(C)c(C)c3c2)n[nH]c1=S,"inconclusive: 11.2 µM [inhibitor, partial curve]",
CCc1nc2cccnc2n1-c1ccc(CC(=O)Nc2ccc(C)cc2)cc1,inactive,
c1ccc2sc(SCSc3nc4ccccc4s3)nc2c1,inactive,
O=C(CSc1nc2ccccc2s1)N/N=C/c1cc([N+](=O)[O-])ccc1O,"inconclusive: 20 µM [inhibitor, partial curve, poor fit]",
N#CC1=C(N)OC(c2ccccc2)=C(C#N)C1c1ccc2c(c1)OCO2 (centres undefined),"inconclusive: 20 µM [inhibitor, single point]",
COC(=O)C1=C(C)N(c2ccc(C)cc2)/C(=C/c2cccs2)C1=O,"inconclusive: 15.8 µM [inhibitor, partial curve]",
O=C(CCSCc1ccccc1Cl)N1CCN(c2cccc(Cl)c2)CC1,"inconclusive: 7.08 µM [inhibitor, partial curve] and inconclusive: 2.82 µM [inhibitor, full curve]",
COc1ccc(NC(=O)CN2CCN(CC(=O)Nc3ccc4c(c3)OCO4)CC2)cc1,inactive,
CCCn1c(CCC(=O)Nc2cc(Cl)c(OC)cc2OC)nc2cccnc21,inactive,
O=C(CCNS(=O)(=O)c1ccc2c(c1)CCN2C(=O)C1CC1)N1CCN(c2ccccc2F)CC1,"inconclusive: 17.8 µM [inhibitor, single point]",
CCOC(=O)OCC1OC(c2cc(C)cc(C)c2)C=CC1OC(=O)OCC (centres undefined),,inactive: -17.4% [at 11.5 µM]
O=C1C=C(NC2=CC3OC(c4ccccc4)OCC3OC2=O)CCC1 (centres undefined),active: 28.2 µM,
CC(=O)Nc1ccc(Oc2cc(N)cc([N+](=O)[O-])c2)cc1,"inconclusive: 25.1 µM [inhibitor, partial curve]",
CCN(CC)S(=O)(=O)c1cc(NC(=O)COC(=O)c2sc3ccccc3c2Cl)ccc1C,inactive,
O=C(Nc1nc(-c2ccc(-c3ccccc3)cc2)cs1)c1cc([N+](=O)[O-])ccc1N1CCOCC1,"inconclusive: 4.47 µM [inhibitor, partial curve]",
CCOC(=O)c1c(C)[nH]c(CCC(=O)NCCCN2CCN(c3cc(C)ccc3C)CC2)c1C,"inconclusive: 39.8 µM [inhibitor, single point]",
COc1ccccc1NC(=O)NCCCN1CCN(c2cccc(Cl)c2)CC1,inactive,
Cc1ccc(OCC(=O)N/N=C/C=C/c2ccco2)cc1,"inconclusive: 14.1 µM [inhibitor, partial curve]",
COc1cc(/C=N/NC(=O)c2ccc(COc3ccccc3Cl)o2)cc(Br)c1O,"inconclusive: 3.16 µM [inhibitor, full curve]",
CCOC(=O)c1sc(-c2ccc(C(F)(F)F)cc2)nc1O,"inconclusive: 14.1 µM [inhibitor, partial curve]",
CCOC(=O)N1CCC(N2CCN(Cc3ccc(C)o3)C(CCO)C2)CC1 (centres undefined),inactive,
COc1ccc(Cl)cc1NC(=O)CSc1ccc(-c2sc(C)nc2C)nn1,"inconclusive: 14.1 µM [inhibitor, partial curve]",

SMILES,Potency,"activity, negative = inhibition"
CN(C)c1ccc(C(CNS(=O)(=O)c2ccc(Br)cc2)N2CCCC2)cc1 (centres undefined),inactive,
COc1ccc(OCc2n[nH]c(=S)n2N)cc1,"inconclusive: 39.8 µM [inhibitor, single point]",
O=C(O)c1ccc(N=c2oc3cc(O)ccc3cc2C(=O)NCc2ccccc2)cc1,active: 28.2 µM,
COc1ccc(C(=O)Nc2nc(C)c(C)s2)cc1OC,"inconclusive: 20 µM [inhibitor, partial curve]",
CC(=O)NC(NC(C)=O)c1ccc(Br)cc1,inactive,
CCN(C(=O)CSc1nc2ccccc2n1CC(=O)Nc1ccccc1C)c1ccccc1,inactive,
O=C(NC(=S)Nc1cccc(CO)c1)c1ccc(-c2ccccc2)cc1,"inconclusive: 0.224 µM [inhibitor, full curve]",
COc1cc(CNc2ccc3[nH]c(=O)[nH]c3c2)ccc1OCc1ccccc1F,"inconclusive: 2.24 µM [inhibitor, full curve]",
CC1CCCN(C(=O)c2ccc3c(=O)n(C4CCCC4)c(=S)[nH]c3c2)C1 (centres undefined),inactive,
Cc1ccc(Cl)cc1-n1ncc2c(NNC(=O)c3ccco3)ncnc21,inactive,
COc1ccc([N+](=O)[O-])cc1NC(=O)c1ccccc1N(C)S(C)(=O)=O,inactive,
O=[N+]([O-])c1c(NCCO)cc(N2CCCCC2)c2nonc12,"inconclusive: 14.1 µM [inhibitor, partial curve]",
CC1CCCN(C(=O)CSCC(=O)Nc2nc(-c3cccs3)cs2)C1 (centres undefined),"inconclusive: 39.8 µM [inhibitor, single point]",
NC(=O)c1ccc(NC(=O)CSc2nnc(-c3ccccn3)n2N)cc1,"inconclusive: 20 µM [inhibitor, partial curve, poor fit]",
CC(C)OC(=O)c1sc2nc(-c3ccccc3)ccc2c1N,inactive,
O=C(N[C@@H](c1ccccc1)[C@@H]1C[C@H]1C(=O)NCc1ccccc1)OCc1ccccc1,inactive,
O=C(O)c1ccccc1/C=N/NC(=O)c1cc(-c2ccco2)nc2ccccc12,"inconclusive: 39.8 µM [inhibitor, single point]",
O=C(/C=C/c1ccccc1Cl)N1CCCN(C(=O)/C=C/c2ccccc2Cl)CC1,"inconclusive: 14.1 µM [inhibitor, partial curve]",
Cc1[nH][nH]c(=O)c1[C@@H](c1ccccc1[N+](=O)[O-])C(C#N)C#N,"inconclusive: 3.55 µM [inhibitor, partial curve, poor fit]",
Cc1ccc(-n2c(C)cc(C(=O)Cn3nc(C(=O)O)c4ccccc4c3=O)c2C)cc1,"inconclusive: 17.8 µM [inhibitor, single point]",
Cc1cccc2c1-c1sc(C(=O)Nc3nccs3)cc1CO2,"inconclusive: 2 µM [inhibitor, full curve]",
N=C1C(c2nc3ccccc3[nH]2)=C(O)CN1NC(=O)c1c[nH]c2ccccc12,"inconclusive: 15.8 µM [inhibitor, partial curve]",

# Reference: PubChem BioAssay AID1460 (National Center for Advancing Translational Sciences (NCATS), 2008)
